According to the RNAGym collection of RNA variant scans (doi:10.7554/elife.90254):
The source gives no read counts; variants with many changes may rest on few reads.

B1: LINE1-mini (parent)
chain: GGCAGAGCUCAACACAGCGUGGCAAAGUGGCUGUGGCUAGACUGCC

Variants of: B1
Experiment: self-cleavage, relative activity (ratio to wild type); higher = more cleavage; in vitro, sequencing; the parent is a self-cleaving ribozyme

**Q.** For A26U C37A G44C, which self-cleavage is on record?
**A.** Its self-cleavage is 0.

**Q.** For A26U G27A G35C G36A U43G, which self-cleavage is on record?
**A.** Its self-cleavage is 0.01.

**Q.** For A26U G27U G30A C31U U32G, which self-cleavage is on record?
**A.** Its self-cleavage is 0.08.

**Q.** Which self-cleavage does the source give for A26U G27U G30C here?
**A.** The self-cleavage was 1.77.

**Q.** Which self-cleavage does the source give for A26U G29A C42U here?
**A.** The self-cleavage was 0.17.

**Q.** For A26U G29C C45G, which self-cleavage is on record?
**A.** The self-cleavage was 0.01.

**Q.** Which self-cleavage does the source give for A26U G29C G35A G40A here?
**A.** Its self-cleavage is 0.03.

**Q.** Which self-cleavage does the source give for A26U G29U A41C C45U here?
**A.** The self-cleavage was 0.06.

**Q.** Which self-cleavage does the source give for A26U G29U C31U A39G here?
**A.** Its self-cleavage is 0.1.

**Q.** With A26U G29U G30C as the variant, how does the self-cleavage read?
**A.** The self-cleavage was 0.11.

**Q.** Which self-cleavage does the source give for A26U G29U U43A here?
**A.** Its self-cleavage is 0.11.

**Q.** With A26U G30A A41G as the variant, how does the self-cleavage read?
**A.** The self-cleavage was 0.32.

**Q.** Which self-cleavage does the source give for A26U G30A C31U G36U here?
**A.** Its self-cleavage is 0.14.

**Q.** Which self-cleavage does the source give for A26U G30C C42U here?
**A.** The self-cleavage was 0.08.

**Q.** For A26U G30C G35C C37G, which self-cleavage is on record?
**A.** Its self-cleavage is 0.03.

**Q.** With A26U G30C G40U as the variant, how does the self-cleavage read?
**A.** The self-cleavage was 0.09.

**Q.** Which self-cleavage does the source give for A26U G33A G35A here?
**A.** Its self-cleavage is 0.1.

**Q.** With A26U G33A G36U as the variant, how does the self-cleavage read?
**A.** The self-cleavage was 0.04.

**Q.** Which self-cleavage does the source give for A26U G33A G40U here?
**A.** Its self-cleavage is 0.05.

**Q.** For A26U G33A U43C, which self-cleavage is on record?
**A.** The self-cleavage was 0.04.

**Q.** With A26U G33C U43A as the variant, how does the self-cleavage read?
**A.** Its self-cleavage is 0.03.

**Q.** For A26U G35A C45G, which self-cleavage is on record?
**A.** The self-cleavage was 0.06.

**Q.** With A26U G35U A39G as the variant, how does the self-cleavage read?
**A.** Its self-cleavage is 0.07.

**Q.** With A26U G35U A41U C46U as the variant, how does the self-cleavage read?
**A.** The self-cleavage was 0.03.

**Q.** Which self-cleavage does the source give for A26U G35U G36U here?
**A.** Its self-cleavage is 0.2.

**Q.** Which self-cleavage does the source give for A26U G40C A41C here?
**A.** The self-cleavage was 0.05.

**Q.** With A26U G40C C42A as the variant, how does the self-cleavage read?
**A.** The self-cleavage was 0.02.

**Q.** For A26U U28A A39C, which self-cleavage is on record?
**A.** Its self-cleavage is 0.45.

**Q.** For A26U U28A C46A, which self-cleavage is on record?
**A.** The self-cleavage was 0.69.

**Q.** Which self-cleavage does the source give for A26U U28A U32G here?
**A.** The self-cleavage was 0.07.

**Q.** For A26U U28C C31U G33C U38A, which self-cleavage is on record?
**A.** Its self-cleavage is 0.08.

**Q.** For A26U U28C G30C U34G, which self-cleavage is on record?
**A.** Its self-cleavage is 0.06.

**Q.** For A26U U28C G30U, which self-cleavage is on record?
**A.** Its self-cleavage is 0.7.

**Q.** With A26U U28G G33A as the variant, how does the self-cleavage read?
**A.** The self-cleavage was 0.07.

**Q.** For A26U U32A C37U, which self-cleavage is on record?
**A.** Its self-cleavage is 0.03.

**Q.** Which self-cleavage does the source give for A26U U32A G35C here?
**A.** The self-cleavage was 0.05.

**Q.** Which self-cleavage does the source give for A26U U32C U43G G44U here?
**A.** Its self-cleavage is 0.04.

**Q.** With A26U U32G A39U G40C as the variant, how does the self-cleavage read?
**A.** Its self-cleavage is 0.

**Q.** With A26U U32G G36U as the variant, how does the self-cleavage read?
**A.** The self-cleavage was 0.06.

**Q.** Which self-cleavage does the source give for A26U U34A G35U G40U A41G here?
**A.** The self-cleavage was 0.01.

**Q.** With A26U U34A G40U C46G as the variant, how does the self-cleavage read?
**A.** The self-cleavage was 0.01.

**Q.** For A26U U34C U38A, which self-cleavage is on record?
**A.** The self-cleavage was 0.04.

**Q.** For A26U U34C U43C, which self-cleavage is on record?
**A.** Its self-cleavage is 0.05.

**Q.** With A26U U34G C45U as the variant, how does the self-cleavage read?
**A.** The self-cleavage was 0.07.

**Q.** With A26U U38A A39C as the variant, how does the self-cleavage read?
**A.** The self-cleavage was 1.09.

**Q.** With A26U U38A C45U as the variant, how does the self-cleavage read?
**A.** Its self-cleavage is 0.37.

**Q.** For A26U U38A C46U, which self-cleavage is on record?
**A.** Its self-cleavage is 0.15.

**Q.** For A26U U38C G40U, which self-cleavage is on record?
**A.** Its self-cleavage is 0.02.

**Q.** For A26U U38C U43C, which self-cleavage is on record?
**A.** Its self-cleavage is 0.03.

**Q.** Which self-cleavage does the source give for G27A A39C C42A here?
**A.** The self-cleavage was 0.04.

**Q.** Which self-cleavage does the source give for G27A A39U C46U here?
**A.** Its self-cleavage is 0.67.

**Q.** For G27A A41G G44U, which self-cleavage is on record?
**A.** The self-cleavage was 0.17.

**Q.** For G27A C31A A41G C42A, which self-cleavage is on record?
**A.** Its self-cleavage is 0.03.

**Q.** For G27A C31A C42A, which self-cleavage is on record?
**A.** Its self-cleavage is 0.27.

**Q.** With G27A C31G C37U as the variant, how does the self-cleavage read?
**A.** Its self-cleavage is 0.15.

**Q.** Which self-cleavage does the source give for G27A C31G G36U here?
**A.** Its self-cleavage is 0.03.

**Q.** Which self-cleavage does the source give for G27A C31G U34A C46U here?
**A.** The self-cleavage was 0.03.

**Q.** With G27A C31U A39C G40A C46G as the variant, how does the self-cleavage read?
**A.** The self-cleavage was 0.03.

**Q.** Which self-cleavage does the source give for G27A C31U A41U here?
**A.** The self-cleavage was 0.28.

**Q.** For G27A C31U G40A C45A, which self-cleavage is on record?
**A.** The self-cleavage was 0.02.

**Q.** With G27A C31U U38G as the variant, how does the self-cleavage read?
**A.** Its self-cleavage is 0.03.

**Q.** With G27A C42A C45G as the variant, how does the self-cleavage read?
**A.** Its self-cleavage is 0.05.

**Q.** With G27A G29A C31G G40U as the variant, how does the self-cleavage read?
**A.** The self-cleavage was 0.06.

**Q.** With G27A G29A G40A C42A as the variant, how does the self-cleavage read?
**A.** Its self-cleavage is 0.12.

**Q.** Which self-cleavage does the source give for G27A G29C G35U U38C here?
**A.** Its self-cleavage is 0.02.

**Q.** With G27A G29U C31A C42G as the variant, how does the self-cleavage read?
**A.** Its self-cleavage is 0.07.

**Q.** Which self-cleavage does the source give for G27A G29U C31G C37G U43C C45A here?
**A.** The self-cleavage was 0.

**Q.** With G27A G30A C31U as the variant, how does the self-cleavage read?
**A.** The self-cleavage was 1.37.

**Q.** For G27A G30C G36A, which self-cleavage is on record?
**A.** Its self-cleavage is 0.1.

**Q.** Which self-cleavage does the source give for G27A G30C U43C here?
**A.** The self-cleavage was 0.06.

**Q.** For G27A G30U G33A A41U, which self-cleavage is on record?
**A.** The self-cleavage was 0.15.

**Q.** For G27A G30U G33U U34A, which self-cleavage is on record?
**A.** The self-cleavage was 0.12.

**Q.** With G27A G33A U43C as the variant, how does the self-cleavage read?
**A.** The self-cleavage was 0.06.

**Q.** With G27A G33C C45U as the variant, how does the self-cleavage read?
**A.** The self-cleavage was 0.03.

**Q.** With G27A G33U G35U as the variant, how does the self-cleavage read?
**A.** The self-cleavage was 0.05.

**Q.** With G27A G33U G36A C42U as the variant, how does the self-cleavage read?
**A.** The self-cleavage was 0.08.

**Q.** With G27A G33U G36U G40A A41U U43G as the variant, how does the self-cleavage read?
**A.** Its self-cleavage is 0.02.

**Q.** With G27A G33U G40C as the variant, how does the self-cleavage read?
**A.** Its self-cleavage is 0.02.

**Q.** Which self-cleavage does the source give for G27A G35A A39G here?
**A.** The self-cleavage was 0.17.

**Q.** Which self-cleavage does the source give for G27A G35A C46G here?
**A.** The self-cleavage was 0.07.

**Q.** For G27A G35C A39U, which self-cleavage is on record?
**A.** The self-cleavage was 0.09.

**Q.** For G27A G35C C42U, which self-cleavage is on record?
**A.** Its self-cleavage is 0.03.

**Q.** For G27A G35C U43C, which self-cleavage is on record?
**A.** Its self-cleavage is 0.03.
